Assay results reported in the RNAGym collection of RNA variant scans (doi:10.1093/nar/gkz1192).
Read counts are not given, so values of variants with three or more changes are uncertain.

B1: CPEB3 Ribozyme (parent)
chain: UAACAGGGGGCCACAGCAGAAGCGUUCACGUCGCAGCCCCUGUCAGAUUCUGGUGAAUCUGCGAAUUCUGCUGUAUAUCUC

Variants of: B1
Test: self-cleavage, relative activity (ratio to wild type); higher = more cleavage; in vitro, sequencing
How it was run: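 Relative activity was defined as the cleaved/total read fraction for a variant divided by the same fraction for the unmutated ribozyme. CPEB3 self-cleaving ribozyme libraries were made by rounds of error-prone PCR, barcoded, and transcribed in vitro with T7 RNA polymerase for 5 hours at 37°C, and cleavage ran through transcription plus a 15 min DNase I step before EDTA. Illumina sequencing of template-switched reverse transcripts gave the reads, and DNA sequencing mapped the barcodes. Averages come from three batches, using variants with at least 5 reads.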
A20G A57G U60C U67C gave a self-cleavage of 0.27. In the case of A20G U41C A56G, the self-cleavage is reported as 0.62. In the case of A20C U41C U43A A45G C59A U72C, the self-cleavage is reported as 0.05. For A20G A21G A28G U43C U72A, the self-cleavage was 0.2. A20G U41C U43C A45U A64G A65G gave a self-cleavage of 0.19. Work on A20G C29G U54G G55U U74C U76C yielded a self-cleavage of 0.33. With A20G A45U U58A U72C the self-cleavage was 0.14. A20G U48A A57U showed a self-cleavage of 0.79. Variant G19A A28G A35G U41C has a self-cleavage of 0.17. For A18U U58C U80C, the self-cleavage was 0.17. A20G A57U U69A showed a self-cleavage of 0.16. In the case of A20G U31C A56U, the self-cleavage is reported as 0.54. A20C G24A A47G C50U U51A U72C showed a self-cleavage of 0.17. For A20G U25A A35G U49A A56U U69C U80A, the self-cleavage was 0.22. For A20G A45U U54A, the self-cleavage was 0.36. With A18U U69A G70C the self-cleavage was 0.22. In the case of A20G C23U U78A, the self-cleavage is reported as 0.12. Work on A20G U31C U54C U66C yielded a self-cleavage of 0.09. A20G A28G C32A U72C U80A showed a self-cleavage of 0.23. A20G U25A U41A G53A A64C showed a self-cleavage of 0.18. For A20G A28C A45G U69C U72G, the self-cleavage was 0. G19A A45U U48C gave a self-cleavage of 0.09. With A20G A28G C29U C37U U48C U49C the self-cleavage was 0.04. A20G G22A G46A U74A U76A showed a self-cleavage of 0.06. Variant G19A A35C G73U has a self-cleavage of 0.08. In the case of A20G C29U U31C, the self-cleavage is reported as 0.11. A20G U43C U51G U72A showed a self-cleavage of 0.17. For A20G U31A A35U U74C U80C, the self-cleavage was 0.51. Variant A20G A45G U51A G52A U58A has a self-cleavage of 0.17. Work on A20G U41C U60A yielded a self-cleavage of 0.57. A20C A45U U76A showed a self-cleavage of 0.54. Work on A20G U25C A35U yielded a self-cleavage of 0.12. With A20G U69G G70U the self-cleavage was 0.21. A20G A56G U78C showed a self-cleavage of 0.44. In the case of A20G C44U U58C U72C U74C, the self-cleavage is reported as 0.07. For A20G U26C U43C A57G U76C, the self-cleavage was 0.22. Work on A20G U69C A75G yielded a self-cleavage of 0.33. With A20G U66C U69C the self-cleavage was 0.2. For A20G C39G U43C U51A U66C, the self-cleavage was 0.24. A20G G46U G52A G53A gave a self-cleavage of 0.8. In the case of G19U C50U U67C G70C U78C, the self-cleavage is reported as 0.14. A18U U49C U54C gave a self-cleavage of 0.13. For A20G A21G U48C A57G, the self-cleavage was 0.35. With A20G U31C U54G U69A the self-cleavage was 0.26. Work on A20G A47U U51A U66A yielded a self-cleavage of 0.09. In the case of A20G U31A G73C, the self-cleavage is reported as 0.92. In the case of A20G A45G A56G, the self-cleavage is reported as 0.27. In the case of G19U C23U A56U C68U A77G, the self-cleavage is reported as 0.13. Variant A18U U51C U54C has a self-cleavage of 0.11. G19C U49C U58A showed a self-cleavage of 0. A20G A35G U72A gave a self-cleavage of 1.09. In the case of A20G U26C G30A A47G C68U G73C U74C, the self-cleavage is reported as 0.07. Variant A20G A28G A64U U67C has a self-cleavage of 0.09. G19C U25C A56G showed a self-cleavage of 0.07. Variant A20G U25C U48C A77G U78A has a self-cleavage of 0.17. Variant A20G U31C A45G A56G has a self-cleavage of 0.21. Variant G19A A28G U80C has a self-cleavage of 0.1. A20G C39A U54A A56G U78C showed a self-cleavage of 0.18. A20G A28C A35G U67C showed a self-cleavage of 1.06. With A20G U25A U51C U66C U78C U80C the self-cleavage was 0.06. G19A G53C A65G U80C gave a self-cleavage of 0.11. In the case of A20G U49C U78C, the self-cleavage is reported as 0.21. For A20C U41A U67C U78A, the self-cleavage was 0.06. With A20G U49C A65G U72C the self-cleavage was 0.25. Work on G19A A20C A21C C32U U58C U69A yielded a self-cleavage of 0.07. For A20G A21G A47G U66C, the self-cleavage was 0.24. For A20G U49C A57G U72C U80C, the self-cleavage was 0.16. For A20G U26A G30A C40U U66C, the self-cleavage was 0.12. G19C U26A C37U gave a self-cleavage of 0.1. For A20G A28G A47G U80C, the self-cleavage was 0.51. In the case of A20G A56G A57G U60C U69A, the self-cleavage is reported as 0.13. With A20G U25A U54A A65G the self-cleavage was 0.07. For A20G U26C A65G U80C, the self-cleavage was 0.19. Work on G19U A64G U78C yielded a self-cleavage of 0.17. With A20G A21U U25A A65G U72C the self-cleavage was 0.07. For A20G G33U G70U U72A, the self-cleavage was 0.13. Work on G19C A56G A57G yielded a self-cleavage of 0.16. A20G A28G A45U showed a self-cleavage of 0.16. A20G A28G A45G showed a self-cleavage of 0.15. Work on A20G U51A A75G yielded a self-cleavage of 0.53. In the case of A20C U26C U51A A65G, the self-cleavage is reported as 0.04. In the case of A20G A35U A45U U67A A77U, the self-cleavage is reported as 0.16. Variant A20G A21G U43C G73A has a self-cleavage of 0.41.
